# Measured values reported in publication PMC4336329 (PLoS ONE, 2015).
# The whole screen tested about 310,000 compounds, of which about 2,200 (0.71%) showed an effect of 50% or more. Effects have a minus sign here. Some of the results follow.
# Molecular target: human ether-à-go-go-related gene (hERG) potassium channel (human, UniProt Q12809)
# Test: primary screen, population patch clamp on CHO cells stably expressing hERG
# Chain of human ether-à-go-go-related gene (hERG) potassium channel (Q12809 whole entry, looked up): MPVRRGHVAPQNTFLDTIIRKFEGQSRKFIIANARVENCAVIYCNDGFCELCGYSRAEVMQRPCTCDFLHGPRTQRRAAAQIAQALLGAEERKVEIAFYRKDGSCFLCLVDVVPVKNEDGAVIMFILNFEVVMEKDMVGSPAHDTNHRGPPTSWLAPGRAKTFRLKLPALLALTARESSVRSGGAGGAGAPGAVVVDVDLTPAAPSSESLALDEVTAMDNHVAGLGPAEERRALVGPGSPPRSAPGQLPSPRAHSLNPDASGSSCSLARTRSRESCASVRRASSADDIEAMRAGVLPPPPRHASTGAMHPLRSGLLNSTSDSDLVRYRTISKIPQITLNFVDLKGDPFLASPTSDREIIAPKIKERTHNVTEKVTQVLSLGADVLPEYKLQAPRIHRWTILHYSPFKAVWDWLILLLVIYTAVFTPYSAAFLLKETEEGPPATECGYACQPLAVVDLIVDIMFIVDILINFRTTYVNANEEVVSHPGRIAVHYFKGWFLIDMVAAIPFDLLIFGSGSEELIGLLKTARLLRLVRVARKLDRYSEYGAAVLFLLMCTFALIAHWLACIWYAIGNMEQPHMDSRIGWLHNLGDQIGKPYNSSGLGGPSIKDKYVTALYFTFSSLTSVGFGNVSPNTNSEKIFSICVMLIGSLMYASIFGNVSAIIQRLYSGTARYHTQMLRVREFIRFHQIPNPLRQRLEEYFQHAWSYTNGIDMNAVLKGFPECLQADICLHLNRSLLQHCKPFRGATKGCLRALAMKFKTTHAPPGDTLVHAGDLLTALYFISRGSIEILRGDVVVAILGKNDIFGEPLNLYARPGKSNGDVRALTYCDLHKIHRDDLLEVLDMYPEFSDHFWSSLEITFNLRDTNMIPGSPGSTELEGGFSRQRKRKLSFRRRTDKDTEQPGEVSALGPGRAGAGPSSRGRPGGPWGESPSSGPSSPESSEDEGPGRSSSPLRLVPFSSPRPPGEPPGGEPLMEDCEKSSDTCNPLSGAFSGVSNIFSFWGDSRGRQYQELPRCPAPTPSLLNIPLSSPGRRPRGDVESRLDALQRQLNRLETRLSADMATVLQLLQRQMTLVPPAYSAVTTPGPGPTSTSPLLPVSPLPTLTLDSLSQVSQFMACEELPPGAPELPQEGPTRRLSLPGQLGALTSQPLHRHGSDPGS
row,Compound,"hERG current change (%, negative = inhibition) at 1uM [%]"
1,CCN(CC)CCn1c2c(c(SCC(=O)Nc3ccc(F)c(F)c3)nc1=O)CCC2,-38.8
2,COc1cc(/C=N/NC(=O)c2cccnc2)cc2c1OCO2,11.1
3,CN(C)C(=O)COc1ccc2c3c(c(=O)oc2c1)CCCC3,10.1
4,Cl.O=C(NCCN1CCCC1)c1ccc(Cl)cc1,4.82
5,Cc1nnc(NC(=O)c2nc(S(=O)(=O)Cc3ccccc3C)ncc2Cl)s1,31.2
6,CC(C)c1ccc(NC2CCCN(C(=O)c3cnc4ccccn4c3=O)C2)cc1 (stereo not shown),12.6
7,COc1cccc(C(=O)Nc2cc(C)c3c(=O)oc4ccccc4c3n2)c1,8.13
8,CCOc1ccc(CNn2nnnc2N)cc1,-0.778
9,CCOc1ccccc1NC(=O)c1c(Br)cnn1C,10.9
10,CC1(C)CC(=O)C(N=Nc2ccc3ncsc3c2)=C(O)C1,6.55
11,CCC(C)(C)NC(=O)CN(Cc1ccccc1Cl)C(=O)CCC(=O)Nc1cc(C)ccn1,7.62
12,O=c1c2ccccc2nnn1Cc1cccc2ccccc12,7.23
13,CCSc1nnc(NC(=O)c2cc3c(s2)CCCC3)s1,1.29
14,CCOC(=O)Cn1c(=O)oc2cc(S(=O)(=O)NC3CCCCC3)ccc21,12.4
15,CS(=O)(=O)N(Cc1ccc(C(=O)NCCSCc2ccco2)cc1)c1ccccc1,-0.859
16,CC(c1ccccc1)n1cc(C(=O)NCC2CCCO2)nn1 (stereo not shown),13.6
17,Cc1nnc(NC(=O)CSc2nnc(C)c(=O)n2N)s1,14.9
18,Cc1onc(-c2ccccc2)c1CNC(=O)Nc1cccc(Cl)c1,8.08
19,O=C(O)c1ccccc1C(=O)Nc1ccc(Br)c2cccnc12,14.5
20,O=C1/C(=C\Nc2ccc(Cl)cc2)CCN1c1ncccn1,-6.89

row,Compound,"hERG current change (%, negative = inhibition) at 1uM [%]"
1,CN1CCN(/N=C/c2nc(-c3ccccc3Cl)n3ccccc23)CC1,3.18
2,c1ccc2[nH]c3cc4ncnc4cc3nc2c1,6.18
3,CCOc1ccc(/C=N/NC(=S)NC2CC3CC2C2C=CCC32)cc1 (stereo not shown),13
4,O=C(c1cccc(F)c1)N1CCN(S(=O)(=O)Cc2ccccc2)CC1,18.7
5,COC(=O)/C=C1/S/C(=N/N=C/c2ccc(N(C)C)cc2)NC1=O,13.3
6,CCN(CC)S(=O)(=O)c1cccc(-c2nn(-c3ccccc3)cc2/C=C(\C#N)C(=O)NCc2ccco2)c1,7.33
7,CC(=O)Nc1ccc(SCC(=O)N(C)C2CCS(=O)(=O)C2)cc1 (stereo not shown),8.69
8,CCOc1ccc2c(c1)C(=O)C(=O)N2CC1COc2ccccc2O1 (stereo not shown),10.7
9,Cc1ccc(C(=O)NNC(=O)CCN2C(=O)C3CCCCC3C2=O)cc1 (stereo not shown),-1.6
10,CN(CCOc1ccccc1)CC(=O)Nc1cccc(Br)c1.O=C(O)C(=O)O,10.6
11,COc1ccc2c(C(=O)CN3CC(C)OC(C)C3)c[nH]c2c1 (stereo not shown),6.86
12,Cl.NC(=NCCc1ccccc1)NC(=O)c1cc(Cl)ccc1O,7.94
13,Cc1ccccc1S(=O)(=O)Cc1ccc(C(=O)NC2CCC(C)CC2)o1 (stereo not shown),6.73
14,Cc1cc(=O)n2c3ccccc3n(CC(O)CN3CCN(CCO)CC3)c2c1C#N (stereo not shown),-1.4
15,COc1ccc(NC2CCCN(C(=O)c3ccc(OC)o3)C2)cc1 (stereo not shown),8.6
16,O=C(COc1ccccc1Cl)NCCNC(=O)c1ccccn1,25.4
17,Cn1c(-c2ccc(=O)[nH]c2)nc2ccccc21,6.08
18,CCc1ccc2nc(NC(=O)c3ccc(N4C(=O)CCC4=O)cc3)sc2c1,11.7
19,Cc1ccc(/C=N/c2sc3c(c2C(N)=O)CCCC3)o1,5.88
20,O=[N+]([O-])c1ccc(COn2nnc3ccccc32)cc1,0.127

row,Compound,"hERG current change (%, negative = inhibition) at 1uM [%]"
1,CC(=O)N1C(C(=O)O)CSC1c1ccc(C)cc1 (stereo not shown),12.1
2,O=C1CC2(CCN(C(=O)c3ccc(Cl)cc3)CC2)Oc2ccccc21,-63.7
3,O=C(C1CC(Cl)CN1S(=O)(=O)c1ccc(Cl)cc1)N1CCOCC1 (stereo not shown),15.6
4,C/C=C/c1ccc(OCCOc2ccc(C=O)cc2)c(OC)c1,22.1
5,C=CCn1c(C)cc(C(=O)CN2C(=O)c3ccccc3S2(=O)=O)c1C,4.57
6,Cc1ccc(CNC(C)c2ccccc2)cc1.Cl (stereo not shown),5.75
7,CCOc1ccc(CNC(=O)c2ccc(Sc3ccc(C)cc3)c(NC(C)=O)c2)cc1,5.97
8,CC(=O)Nc1ccc(C)c(NC(=S)Nc2ccc(F)cc2)c1,15.5
9,CCOc1ccc(N2CC(C(=O)NCCCc3ccccc3)CC2=O)cc1 (stereo not shown),-35.2
10,CCCOC(=O)C1=C(C)NC(=O)NC1c1ccc(Br)s1 (stereo not shown),12.9
11,COc1cccc(/C=C2\SC(=O)NC2=O)c1OCc1ccc(C(=O)O)cc1,13.5
12,COC(=O)CSc1ccc(S(=O)(=O)N2CCC(C)CC2)cc1[N+](=O)[O-],5.28
13,Cc1ccc(CNC(=O)Cn2cnc3c(NC(=O)OCc4ccccc4)ncnc32)o1,-3.92
14,Cc1ccc(NS(=O)(=O)c2cccc(C(=O)NCC3CCCO3)c2)cc1 (stereo not shown),14.1
15,CC(=O)c1ccc(-c2nnc(CCC(=O)N(C)Cc3cnc4ccccn34)o2)s1,4.08
16,O=[N+]([O-])c1nn(-c2ccc3c(c2)OCCO3)n(O)c1=NCCCO,5.81
17,O=[N+]([O-])c1ccc2sc(SCc3nc4ccccn4c3Br)nc2c1,23.3
18,COc1cc(C(N)=O)cc(Cl)c1OC,33.2
